# Data published in the supplement of paper PMC8728848.
# This is one part of the list.
# Experiments:
# Experiment in all cases: glycan array binding signal (z-score within array); higher = stronger binding
# Details in all cases: glycan notation: IUPAC condensed, linker removed
# [1] = target: GlcNAc(b1-2)Gal(b1-3)GalNAc
# Procedure, shortened: (§1)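 The binding signal is a Z-score computed within each array. Data were drawn from 3228 arrays in the Consortium for Functional Glycomics database, restricted to those with a known protein sequence. Scores were averaged over arrays of the same protein sequence at different concentrations or buffers, and over linkers, and negative values can be taken as non-binding.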
# [2] = target: GlcNAc(b1-2)Man(a1-3)[GlcNAc(b1-2)Man(a1-6)]Man(b1-4)GlcNAc(b1-4)GlcNAc
# Procedure, shortened: as §1
# [3] = target: GlcNAc(b1-2)Man(a1-3)[GlcNAc(b1-2)Man(a1-6)]Man(b1-4)GlcNAc(b1-4)[Fuc(a1-6)]GlcNAc
# Procedure, shortened: as §1
# [4] = target: GlcNAc(b1-2)Man(a1-3)[GlcNAc(b1-4)][GlcNAc(b1-2)Man(a1-6)]Man(b1-4)GlcNAc(b1-4)GlcNAc
# Procedure, shortened: as §1
# [5] = target: GlcNAc(b1-2)Man(a1-3)[GlcNAc(b1-4)][GlcNAc(b1-2)Man(a1-6)]Man(b1-4)GlcNAc(b1-4)[Fuc(a1-6)]GlcNAc
# Procedure, shortened: as §1
# [6] = target: GlcNAc(b1-2)[GlcNAc(b1-4)]Man(a1-3)[GlcNAc(b1-2)Man(a1-6)]Man(b1-4)GlcNAc(b1-4)GlcNAc
# Procedure, shortened: as §1
# [7] = target: GlcNAc(b1-2)[GlcNAc(b1-4)]Man(a1-3)[GlcNAc(b1-4)][GlcNAc(b1-2)Man(a1-6)]Man(b1-4)GlcNAc(b1-4)GlcNAc
# Procedure, shortened: as §1
# [8] = target: GlcNAc(b1-2)[GlcNAc(b1-4)]Man(a1-3)[GlcNAc(b1-4)][GlcNAc(b1-2)[GlcNAc(b1-6)]Man(a1-6)]Man(b1-4)GlcNAc(b1-4)GlcNAc
# Procedure, shortened: as §1
# [9] = target: GlcNAc(b1-2)[GlcNAc(b1-4)]Man(a1-3)[GlcNAc(b1-4)][GlcNAc(b1-2)[GlcNAc(b1-6)]Man(a1-6)]Man(b1-4)GlcNAc(b1-4)[Fuc(a1-6)]GlcNAc
# Procedure, shortened: as §1
# [10] = target: GlcNAc(b1-2)[GlcNAc(b1-6)]Man(a1-6)[GlcNAc(b1-2)Man(a1-3)]Man(b1-4)GlcNAc(b1-4)GlcNAc
# Procedure, shortened: as §1
# [11] = target: GlcNAc(b1-2)[GlcNAc(b1-6)]Man(a1-6)[GlcNAc(b1-2)Man(a1-3)]Man(b1-4)GlcNAc(b1-4)[Fuc(a1-6)]GlcNAc
# Procedure, shortened: as §1
# [12] = target: GlcNAc(b1-2)[GlcNAc(b1-6)]Man(a1-6)[GlcNAc(b1-4)][GlcNAc(b1-2)Man(a1-3)]Man(b1-4)GlcNAc(b1-4)GlcNAc
# Procedure, shortened: as §1
# GlcNAc(b1-3)Fuc = target: GlcNAc(b1-3)Fuc
# Procedure, shortened: as §1
# GlcNAc(b1-3)Gal = target: GlcNAc(b1-3)Gal
# Procedure, shortened: as §1
# [13] = target: GlcNAc(b1-3)Gal(b1-3)GalNAc
# Procedure, shortened: as §1
# GlcNAc(b1-3)Gal(b1-4)Glc = target: GlcNAc(b1-3)Gal(b1-4)Glc
# Procedure, shortened: as §1
# [14] = target: GlcNAc(b1-3)Gal(b1-4)GlcNAc
# Procedure, shortened: as §1
# [15] = target: GlcNAc(b1-3)Gal(b1-4)GlcNAc(b1-2)Man(a1-3)[GlcNAc(b1-3)Gal(b1-4)GlcNAc(b1-2)Man(a1-6)]Man(b1-4)GlcNAc(b1-4)GlcNAc
# Procedure, shortened: as §1
# [16] = target: GlcNAc(b1-3)Gal(b1-4)GlcNAc(b1-2)Man(a1-3)[GlcNAc(b1-3)Gal(b1-4)GlcNAc(b1-2)Man(a1-6)]Man(b1-4)GlcNAc(b1-4)[Fuc(a1-6)]GlcNAc
# Procedure, shortened: as §1
# [17] = target: GlcNAc(b1-3)Gal(b1-4)GlcNAc(b1-2)[GlcNAc(b1-3)Gal(b1-4)GlcNAc(b1-6)]Man(a1-6)[GlcNAc(b1-3)Gal(b1-4)GlcNAc(b1-2)Man(a1-3)]Man(b1-4)GlcNAc(b1-4)GlcNAc
# Procedure, shortened: as §1
# [18] = target: GlcNAc(b1-3)Gal(b1-4)GlcNAc(b1-3)Gal(b1-4)GlcNAc
# Procedure, shortened: as §1
# [19] = target: GlcNAc(b1-3)Gal(b1-4)GlcNAc(b1-3)Gal(b1-4)GlcNAc(b1-2)Man(a1-3)[GlcNAc(b1-3)Gal(b1-4)GlcNAc(b1-3)Gal(b1-4)GlcNAc(b1-2)Man(a1-6)]Man(b1-4)GlcNAc(b1-4)GlcNAc
# Procedure, shortened: as §1
binder,measurement,setting,value
Pwp2 (Candida glabrata) (protein) MGSSHHHHHHSSGLVPRGSHMASKNPVELNNVCTFPNDYGRIPGFTVLVGRLGLLISASDYKELLRYPGAFLIATQDTMTTSPNFELTGFPFFTGLYGLTVFPLDLLVELRGYFVPPNSGQYTFTLSDSDDAAIIFLGNPSAFPCGDLQNWPKPSEEDITVTDHLFPSRTLYLIEGVAYPMRIAYYNGIGAGRLNAAFIDPSGTRHTNWEGYIWQYDPCSTCTYS,glycan array binding signal (z-score),[1],-0.485
same,glycan array binding signal (z-score),[2],0.373
same,glycan array binding signal (z-score),[3],-0.514
same,glycan array binding signal (z-score),[4],-0.387
same,glycan array binding signal (z-score),[5],-0.712
same,glycan array binding signal (z-score),[6],-0.966
same,glycan array binding signal (z-score),[7],-0.425
same,glycan array binding signal (z-score),[8],-0.398
same,glycan array binding signal (z-score),[9],-0.116
same,glycan array binding signal (z-score),[10],-1.28
same,glycan array binding signal (z-score),[11],3.55
same,glycan array binding signal (z-score),[12],-0.451
same,glycan array binding signal (z-score),GlcNAc(b1-3)Fuc,-0.141
same,glycan array binding signal (z-score),GlcNAc(b1-3)Gal,-0.529
same,glycan array binding signal (z-score),[13],0.299
same,glycan array binding signal (z-score),GlcNAc(b1-3)Gal(b1-4)Glc,-0.557
same,glycan array binding signal (z-score),[14],-0.422
same,glycan array binding signal (z-score),[15],-0.246
same,glycan array binding signal (z-score),[16],0.16
same,glycan array binding signal (z-score),[17],4.24
same,glycan array binding signal (z-score),[18],-0.843
same,glycan array binding signal (z-score),[19],0.226
